Data published in PMC3492284.
These are yes or no findings as the source states them, for the method shown. In cells and extracts the contact can be indirect. Sequences can lack the tags named with a protein.

Biological target: T1, HA-epitope tagged Cbl-c, full length (UniProt Q9ULV8)
T1 sequence: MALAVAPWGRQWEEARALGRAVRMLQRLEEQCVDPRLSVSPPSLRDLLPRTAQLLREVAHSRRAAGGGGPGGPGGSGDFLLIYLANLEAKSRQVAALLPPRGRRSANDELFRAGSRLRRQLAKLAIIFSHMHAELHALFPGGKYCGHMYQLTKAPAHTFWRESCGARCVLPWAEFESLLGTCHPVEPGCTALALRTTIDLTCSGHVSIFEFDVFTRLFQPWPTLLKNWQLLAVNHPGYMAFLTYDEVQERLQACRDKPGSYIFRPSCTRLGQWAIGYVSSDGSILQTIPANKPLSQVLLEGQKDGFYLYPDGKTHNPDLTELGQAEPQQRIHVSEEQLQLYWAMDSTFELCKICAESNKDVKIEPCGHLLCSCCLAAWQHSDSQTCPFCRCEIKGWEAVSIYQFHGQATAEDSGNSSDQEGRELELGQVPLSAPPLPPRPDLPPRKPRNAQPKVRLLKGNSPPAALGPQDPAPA
Experiment: co-IP; HEK293T cells co-transfected; 200 µg lysate protein; HA-tagged Cbl proteins precipitated with HA-affinity matrix overnight at 4°C; lysis buffer 10 mM Tris-HCl pH 7.5, 150 mM NaCl, 5 mM EDTA, 1% Triton X-100, 10% glycerol; blot for Hic-5 or Trip-6

binding: no binding
B1: Trip-6, full-length cDNA (protein, UniProt Q15654 1-476)
chain: MSGPTWLPPKQPEPARAPQGRAIPRGTPGPPPAHGAALQPHPRVNFCPLPSEQCYQAPGGPEDRGPAWVGSHGVLQHTQGLPADRGGLRPGSLDAEIDLLSSTLAELNGGRGHASRRPDRQAYEPPPPPAYRTGSLKPNPASPLPASPYGGPTPASYTTASTPAGPAFPVQVKVAQPVRGCGPPRRGASQASGPLPGPHFPLPGRGEVWGPGYRSQREPGPGAKEEAAGVSGPAGRGRGGEHGPQVPLSQPPEDELDRLTKKLVHDMNHPPSGEYFGQCGGCGEDVVGDGAGVVALDRVFHVGCFVCSTCRAQLRGQHFYAVERRAYCEGCYVATLEKCATCSQPILDRILRAMGKAYHPGCFTCVVCHRGLDGIPFTVDATSQIHCIEDFHRKFAPRCSVCGGAIMPEPGQEETVRIVALDRSFHIGCYKCEECGLLLSSEGECQGCYPLDGHILCKACSAWRIQELSATVTTDC
